In patent US12274703B2, “Compositions and methods of treatment for neurological disorders comprising a dementia” (Gliapharm SA, priority 2017, dated 2025):
For some assays here: At least one read-out could not be matched to a standard name with certainty. For some assays here: For at least one compound, name, drawing or mass did not settle the structure.

Legend:
Assay type in all cases: cell-based, mouse
astrocytes [1] = experiment: Intracellular glycogen quantification; conditions: Prestwick hits; 10 μM, 3 h
primary astrocytes = experiment: High throughput screening for lactate secretion: acidification of extracellular medium (SNARF5); parameters: key: fraction of positive control activity (positive control = 100%); conditions: Appendix I; primary screening confirmation (SNARF5)
Method: (§1) Primary cultures of cerebrocortical astrocytes were obtained from 1-2-day-old OF1 mouse pups (Charles River Laboratories). Briefly, cortices were isolated and minced in small pieces under a dissecting microscope. The cells were incubated for 30 min at 37° C. in a solution containing 20 U/ml of papain enzyme (Worthington Biochemical), L-cysteine 1 mM (Sigma), and 10 kU/ml DNase I (Worthington Biochemical) for an enzymatic dissociation. Papain activity was stopped by the addition of fetal calf serum (FCS) to the solution, and a single-cell suspension was then obtained by mechanical dissociation, which consisted in cells trituration in a DMEM (D7777, Sigma-Aldrich) medium (supplemented with 44 mm NaHCO3, and 10 ml/L antibiotic/antimycotic solution) containing 10% FCS. The cells were seeded at an average density of 6×10^4 cells/cm^2 in poly-D-lysine-coated 96, 12 or 6-well culture plates, depending on their use, and incubated at 37° C. in a humidified atmosphere containing 5% CO2/95% air. Culture medium was renewed twice per week. Cells were stimulated and harvested between DIV14 and DIV17, when confluence and cell growth were optimal.
Secretion of lactate in a high-throughput screening (HTS) fashion was measured indirectly through the acidification of extracellular medium. To this end, primary astrocytes grown in 96-well plates for 17 days were stimulated with the compounds as listed herein.
After washing the cells twice with stimulation medium (DMEM (D5030, Sigma), 3 mM NaHCO3 and 5 mM Glucose) at 37° C., cells were stimulated with the compounds at a final concentration of 10 uM (1% DMSO final) in 50 ul per well of stimulation medium supplemented with 10 uM of the extracellular pH sensor SNARF-5F %-(AND-6)-CAR (Life Technologies Corporation). Each compound was tested in two different plates for duplicates.
After 90 min stimulation, fluorescence was read at exc. (excitation) 480 nm/emm. (emission) 580 nm and at exc 480 nm/emm. 630 nm. The ratio of fluorescence between 630 nm and 580 emission values, which represents extracellular pH, was calculated.
In each plate, 8 wells were used for negative controls (DMSO) and 8 wells were used for positive controls (CCCP 2 uM in DMSO). Z prime values were calculated for each of the plates tested and values <0 were discarded.
The average and SD of compounds' values tested in duplicates were calculated, and compound was noted as HIT when the difference between compound's average and negative control's average was greater than three times the sum of compound's SD and negative controls' SD. Only scores greater than 40% were considered as lead hits for the CDC54K library; for the remaining libraries, all hits were considered. Scores are calculated as the % of activity compared to the positive control in each plate (which is 100%).
Primary screening hits were cherry picked on new plates and confirmed for SNARF5 effect, after having discarded those compounds that are fluorescent (exc. 480 nm/emm. 580 nm or 630 nm) before stimulation. Extracellular medium was next analyzed for extracellular lactate quantification for secondary screening.
Identification of lactate-enhancing drugs with high throughput screening (HTS) experiments on astrocytes primary cultures using extracellular pH dye (SNARF5F 5-(and 6)-carboxylic acid) for 90 min. The procedure is described in Material and Methods (2. Cell culture, 2.1. HTS for lactate secretion and 2.2. Extracellular lactate quantification).
The procedure was performed as follows: • Primary screening: acidification of the extracellular medium • Primary screening confirmation: acidification of the extracellular medium, removal of compounds with fluorescent activity at exc. 480 nm/emm. 580 nm or 630 nm. • Secondary screening: dosage of extracellular lactate

astrocytes [2] = experiment: Extracellular lactate quantification; conditions: for Score_LACTATE: Appendix I, secondary screening, dosage of extracellular lactate; for Score Lact.: Appendix II
Method: as §1
Secretion of L-lactate was determined in the extracellular medium of 96-well plated astrocytes after 90 min stimulation (at 37° C., in 5% CO2/95% air conditions) with the drug of interest. The stimulation medium was composed of D5030 medium (completed with D-glucose 5 mM and 44 mM sodium bicarbonate) for 90 min in concentrations ranging from 0 to 100 μM.
Briefly, 200 μl of a Glycine (Sigma)-Semicarbazide (Acros) 0.2M pH 10 buffer containing 3 mM NAD (Roche) and LDH 14 U/ml (Roche) was added to each well of a 96-well plate containing 30 μl aliquots complemented with 20 μl fresh complete D5030 medium. Samples were incubated at 37° C. for 1 h. After samples cooled down at room temperature, the fluorescence intensity (340 nm excitation/450 nm emission) that represents the amount of NADH produced was measured, and lactate concentration values were determined from a standard curve of L-lactate.
Statistical analysis consisted in ANOVA followed by Fisher LSD post-hoc test for pair-wise comparisons.
Levels of lactate secreted by astrocytes were measured in the extracellular medium at 90 min after stimulation with hits (molecules) from the CDC54K library.

| SMILES | Glycogen (statistical significance of glycogen degradation) (astrocytes [1]) | Score_SNARF (primary astrocytes) | Score_LACTATE (astrocytes [2]) | Score Lact. (astrocytes [2]) |
| --- | --- | --- | --- | --- |
| CCC(=O)O[C@@H](O[P@](=O)(CCCCc1ccccc1)CC(=O)N1C[C@H](C2CCCCC2)C[C@H]1C(=O)O)C(C)C [Fosinopril] | ns |  |  |  |
| O=C(C[n+]1cc(-c2ccc(Br)cc2)n2c1CCCCC2)c1ccccc1.[Br-] [T0500-4648] |  | 1.034 | 1.116 |  |
| O=C(C[n+]1cc(-c2ccccc2)n2c1CCC2)c1ccc(Br)cc1.[Br-] [T0502-5560] |  | 0.8504 | 0.8524 |  |
| COc1ccc(Nc2nc(N3CCOCC3)c3ccccc3n2)cc1.Cl [T0508-5190] |  | 0.4029 | 0.2892 |  |
| Cl.Fc1ccc(Nc2nc(N3CCOCC3)c3ccccc3n2)cc1 [T0508-5193] |  | 0.3052 | 0 |  |
| CC(=O)c1cccc(NC(=O)C(C)Sc2ncnc3ccccc23)c1 (centres unmarked) [T0511-9200] |  | 0.4866 | 0.7518 |  |
| c1ccc2c(c1)CCN(c1ncnc3sccc13)C2 [T0517-8250] |  | 0.9124 | 0.9269 |  |
| O=S(=O)(Nc1ccc(O)c(Cl)c1)c1ccc2ccccc2c1 [T0517-8939] |  | 0.6382 | 0 |  |
| CC(C)OCCCNc1ncnc2c1CCC2 [T636-0027] |  | 0 | 0 |  |
| Cc1ccc(CNc2ncnc3c2CCC3)o1 [T636-0054] |  | 0 | 0 |  |
| COc1cccc(CNc2ncnc3c2CCC3)c1 [T636-0134] |  | 0 | 0.3283 |  |
| Cc1ccsc1C(=O)NC1CCN(c2ncnc3c2CCC3)C1 (centres unmarked) [T636-1114] |  | 0.6238 | 0.5477 |  |
| O=C(NCc1ccccc1)NC1CCN(c2ncnc3c2CCC3)C1 (centres unmarked) [T636-1210] |  | 0.4305 | 0.3226 |  |
| O=C(NCc1cccc(F)c1)NC1CCN(c2ncnc3c2CCC3)C1 (centres unmarked) [T636-1243] |  | 0.4179 | 0 |  |
| O=S(=O)(NC1CCN(c2ncnc3c2CCC3)C1)c1ccccc1 (centres unmarked) [T636-1250] |  | 0.8587 | 0.8982 |  |
| Cc1ccc(CN2CCN(c3ncnc4c3CCC4)CC2)o1 [T636-1937] |  | 0.473 | 0.8045 |  |
| COc1ccc(CN2CCN(c3ncnc4c3CCC4)CC2)cc1OC [T636-2007] |  | 0.8596 | 0.9841 |  |
| O=C(Cc1cccc(F)c1)N1CCC(Nc2ncnc3c2CCC3)C1 (centres unmarked) [T636-2360] |  | 0 | 0.413 |  |
| N#Cc1ccc(C(=O)N2CCC(Nc3ncnc4c3CCC4)C2)cc1 (centres unmarked) [T636-2387] |  | 0.4809 | 0.3005 |  |
| O=C(c1ccc(Cl)s1)N1CCC(Nc2ncnc3c2CCC3)C1 (centres unmarked) [T636-2391] |  | 0.8743 | 0.8854 |  |
| Cn1nccc1C(=O)N1CCC(Nc2ncnc3c2CCC3)C1 (centres unmarked) [T636-2425] |  | 0.2725 | 0.3027 |  |

| SMILES | Glycogen (statistical significance of glycogen degradation) (astrocytes [1]) | Score_SNARF (primary astrocytes) | Score_LACTATE (astrocytes [2]) | Score Lact. (astrocytes [2]) |
| --- | --- | --- | --- | --- |
| O=S(=O)(Nc1ccc(F)c(Cl)c1)c1ccc2ccccc2c1 [T5231424] |  | 0.3707 | 0.5258 |  |
| COc1ccccc1S(=O)(=O)Nc1ccc2nc(C)sc2c1 [T5246417] |  | 0.2455 | 0 |  |
| FC(F)(F)c1cccc(CNc2ncnc3sccc23)c1 [T5346988] |  | 0.9569 | 0.9327 |  |
| COc1ccc(C2SCCN2S(=O)(=O)c2cccc(C)c2)cc1OC (centres unmarked) [T5463658] |  | 0.4683 | 0.3773 |  |
| Cc1nc2ccc(NS(=O)(=O)c3ccccc3F)cc2s1 [T5511047] |  | 0.5545 | 0.3825 |  |
| Cc1cc(S(=O)(=O)NCc2ccncc2)c(Cl)cc1Cl [T5581430] |  | 0.505 | 0 |  |
| Cc1nc(-c2cccc(NS(=O)(=O)c3ccc(N4CCCC4=O)cc3)c2)cs1 [T5599698] |  | 0.8856 | 0.7496 |  |
| O=C(NC1CC1)c1cccc(NS(=O)(=O)c2ccc(N3CCCC3=O)cc2)c1 [T5618591] |  | 0.5353 | 0.3601 |  |
| CC(=O)c1cccc(NC(=O)C(C)Sc2ncnc3ccsc23)c1 (centres unmarked) [T5627721] |  | 0.7385 | 0.9487 |  |
| CC1c2ccsc2CCN1c1ncnc2sccc12 (centres unmarked) [T5630309] |  | 0.4816 | 0.7 |  |
| O=S(=O)(Nc1ccc2[nH]ncc2c1)c1ccc(C(F)(F)F)cc1 [T5653029] |  | 0.5642 | 1.354 |  |
| CC(Nc1ncnc2sccc12)c1ccccn1 (centres unmarked) [T5672380] |  | 0.7508 | 0.5883 | 0.58 |
| c1csc(C(Nc2ncnc3sccc23)C2CC2)c1 (centres unmarked) [T5713637] |  | 1.184 | 1.287 |  |
| O=S(=O)(Nc1cc(F)cc(F)c1)c1ccc2ccccc2c1 [T5884038] |  | 0.8379 | 0.9262 |  |
| COc1cccc(CNS(=O)(=O)c2ccc3c(c2)CCCN3C(C)=O)c1 [T5967389] |  | 0.2789 | 0.4517 | 0.45 |
| c1ccc(C(Nc2ncnc3sccc23)C2CC2)cc1 (centres unmarked) [T6016487] |  | 1.081 | 1.857 |  |
| CC(=O)N1CCCc2cc(S(=O)(=O)NCc3cccc(C(F)(F)F)c3)ccc21 [T6099519] |  | 0.3944 | 0 |  |
| Cc1ccc(F)cc1NC(=O)Cc1nn(C)c(=O)c2ccccc12 [T6302989] |  | 0.4072 | 0 |  |
| c1ccc2c(c1)CN(c1ncnc3sccc13)CCN2 [T6768300] |  | 0.3742 | 0 |  |
| CN(C)Cc1cccc(CNc2ncnc3sccc23)c1 [T6783542] |  | 0.9183 | 1.033 |  |
